This is one part of the list. At the low end of the ranking the order means little.

For this assay, the target named is GST-SBP-SLBP (stem-loop binding protein) (UniProt Q14493). Kind of assay: targeted RNA Bind-n-Seq.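 Also: DESeq read counts versus GST-SBP nonspecific binding control pulldown.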 The settings on record: RBNS binding buffer: 25 mM Tris pH 7.5, 150 mM KCl, 3 mM MgCl2, 0.1% Tween, 0.5 mg/mL BSA, 1 mM DTT; 27 nM protein, 750 pM RNA pool; temperature not stated; high values mean tight binding.
For “GGUCACGUCUCAAUCAACUCAACUCCCAGGGAAAGCCCUGGUUUAUUCAACAGCUCGCAGUCAAG”, the binding signal (log2 fold change) is 0.0251. As for “GGUCACGUCUCAAUCAACUCUAUCGAGGGGGGGAAAACCCCUUUACCCUCACCAUCAACAGCUCGCAGUCAAG”, the binding signal (log2 fold change) was -0.0576. With “GGUCACGUCUCAAUCAACUCAACUCCAGGAGUUUUCUCCUGCUUACUCAACAGCUCGCAGUCAAG”, the binding signal (log2 fold change) is -0.118.

As to “GGUCACGUCUCAAUCAACUCAAUUCCCAGGGAAAACCCUGGCAUUCUCAACAGCUCGCAGUCAAG”, the binding signal (log2 fold change) was determined as 0.249.

Turning to “GGUCACGUCUCAAUCAACUCAAUCUCAGGAGUUUGCUCCUGCAUUCUCAACAGCUCGCAGUCAAG”, the binding signal (log2 fold change) turned out to be 0.0833. Take “GGUCACGUCUCAAUCAACUCCCCAGAGGGGGGGAAAACCCCUUUGCCCUCACUAUCAACAGCUCGCAGUCAAG”: the binding signal (log2 fold change) was -1.41e-05.

For the sequence “GGUCACGUCUCAAUCAACUCUUCUCCAGGAGUUUCCUCCUGCAAAUUCAACAGCUCGCAGUCAAG”, the binding signal (log2 fold change) was -0.0732. Next, “GGUCACGUCUCAAUCAACUCUUCGUCCAGGGAAAACCCUGGUAAAUUCAACAGCUCGCAGUCAAG”: -0.134.

Turning to “GGUCACGUCUCAAUCAACUCAUUUUCCAGGGAAACCCCUGGCUUAUUCAACAGCUCGCAGUCAAG”, the binding signal (log2 fold change) was -0.0481.

For “GGUCACGUCUCAAUCAACUCCCUCGAGGGGGGGAAAACCCCUUUACCCUCACAUUCAACAGCUCGCAGUCAAG”, the binding signal (log2 fold change) is -0.22. In the case of “GGUCACGUCUCAAUCAACUCUUCUUCCAGGGAAAGCCCUGGUAAAUUCAACAGCUCGCAGUCAAG”, the binding signal (log2 fold change) was -0.0184. Regarding “GGUCACGUCUCAAUCAACUCAACGCCAGGAGUUUCCUCCUGUUAUUUCAACAGCUCGCAGUCAAG”, the binding signal (log2 fold change) is 0.0113. Next, “GGUCACGUCUCAAUCAACUCAUUCUCCAGGGAAAACCCUGGUAAACUCAACAGCUCGCAGUCAAG”: -0.00388; “GGUCACGUCUCAAUCAACUCAUUCCCAGGAGUUUCCUCCUGUAUUUUCAACAGCUCGCAGUCAAG”: -0.089.

For “GGUCACGUCUCAAUCAACUCCCCAGAGGGGGGGAAAACCCCUUUGCCCUCCAUAUCAACAGCUCGCAGUCAAG”, the binding signal (log2 fold change) is -0.0471. Regarding “GGUCACGUCUCAAUCAACUCUAUCCCCAGGGAAAACCCUGGCUUACUCAACAGCUCGCAGUCAAG”, the binding signal (log2 fold change) came to 0.16.

For the sequence “GGUCACGUCUCAAUCAACUCUUUUCCAGGAGUUUUCUCCUGUUAUCUCAACAGCUCGCAGUCAAG”, the binding signal (log2 fold change) is 0.024. Next, “GGUCACGUCUCAAUCAACUCCUAAGAGGGGGGGAAAACCCCUUUGCCCUCGAAUUCAACAGCUCGCAGUCAAG”: 0.0882; “GGUCACGUCUCAAUCAACUCCUAAGAGGGGGGGAAAACCCCUUUACCCUCAAAAUCAACAGCUCGCAGUCAAG”: -0.628; “GGUCACGUCUCAAUCAACUCUACUCCCAGGGAAACCCCUGGCUAUUUCAACAGCUCGCAGUCAAG”: 0.0213. Next, “GGUCACGUCUCAAUCAACUCUUCUUCCAGGGAAAGCCCUGGUUAAUUCAACAGCUCGCAGUCAAG”: 0.0263; “GGUCACGUCUCAAUCAACUCUUCUUCAGGAGUUUCCUCCUGUAAUGUCAACAGCUCGCAGUCAAG”: 0.163. Regarding “GGUCACGUCUCAAUCAACUCUCCAGAGGGGGGGAAAACCCCUUUACCCUCACAUUCAACAGCUCGCAGUCAAG”, the binding signal (log2 fold change) came to 0.328. For “GGUCACGUCUCAAUCAACUCUUUAGAGGGGGGGAAAACCCCUUUACCCUCAACAUCAACAGCUCGCAGUCAAG”, the binding signal (log2 fold change) was -0.49.

“GGUCACGUCUCAAUCAACUCAUUUUCAGGAGUUUCCUCCUGCAUUCUCAACAGCUCGCAGUCAAG”: the binding signal (log2 fold change) was 0.165. In the case of “GGUCACGUCUCAAUCAACUCUUUCUCCAGGGAAAUCCCUGGUUUUUUCAACAGCUCGCAGUCAAG” it was -0.0354; in that of “GGUCACGUCUCAAUCAACUCUACUUCCAGGGAAAGCCCUGGCAUUCUCAACAGCUCGCAGUCAAG”, 0.122.

Consider “GGUCACGUCUCAAUCAACUCUACUUCCAGGGAAACCCCUGGCAAUUUCAACAGCUCGCAGUCAAG”, for which the binding signal (log2 fold change) amounted to 0.263. In the case of “GGUCACGUCUCAAUCAACUCUCUAGAGGGGGGGAAAACCCCUUUGCCCUCAUUUUCAACAGCUCGCAGUCAAG” it was 0.0988; in that of “GGUCACGUCUCAAUCAACUCUUCCCCAGGAGUUUACUCCUGCAUACUCAACAGCUCGCAGUCAAG”, -0.0381. With “GGUCACGUCUCAAUCAACUCUAUUCCAGGAGUUUUCUCCUGUUAUUUCAACAGCUCGCAGUCAAG”, the binding signal (log2 fold change) is -0.128. On to “GGUCACGUCUCAAUCAACUCCACGGAGGGGGGGAAAACCCCUUUACCCUCACAUUCAACAGCUCGCAGUCAAG”, for which the binding signal (log2 fold change) is -0.41.

As for “GGUCACGUCUCAAUCAACUCUAUCGAGGGGGGGAAAACCCCUUUACCCUCUCAUUCAACAGCUCGCAGUCAAG”, the binding signal (log2 fold change) is 0.0063. Next, “GGUCACGUCUCAAUCAACUCUAUCCCAGGAGUUUUCUCCUGUAAACUCAACAGCUCGCAGUCAAG”: 0.0127; “GGUCACGUCUCAAUCAACUCCUUAGAGGGGGGGAAAACCCCUUUGCCCUCACCGUCAACAGCUCGCAGUCAAG”: 0.412. As for “GGUCACGUCUCAAUCAACUCAAACGAGGGGGGGAAAACCCCUUUACCCUCAUCCUCAACAGCUCGCAGUCAAG”, the binding signal (log2 fold change) was -0.0438.

Take “GGUCACGUCUCAAUCAACUCAAUUCCAGGAGUUUACUCCUGCAUAUUCAACAGCUCGCAGUCAAG”: the binding signal (log2 fold change) was found to be 0.0244. With “GGUCACGUCUCAAUCAACUCAAUAGAGGGGGGGAAAACCCCUUUACCCUCGGAAUCAACAGCUCGCAGUCAAG”, the binding signal (log2 fold change) was -0.296. In the case of “GGUCACGUCUCAAUCAACUCCCAAGAGGGGGGGAAAACCCCUUUACCCUCCCAAUCAACAGCUCGCAGUCAAG” it was -0.13; in that of “GGUCACGUCUCAAUCAACUCUAUUCCAGGAGUUUACUCCUGUUUAUUCAACAGCUCGCAGUCAAG”, -0.188; in that of “GGUCACGUCUCAAUCAACUCUUCCCCCAGGGAAAUCCCUGGCUAUUUCAACAGCUCGCAGUCAAG”, 0.0403. Next, “GGUCACGUCUCAAUCAACUCAACUCCAGGAGUUUCCUCCUGCUUUCUCAACAGCUCGCAGUCAAG”: 0.00153; “GGUCACGUCUCAAUCAACUCUAUGGCAGGAGUUUACUCCUGGAUAUUCAACAGCUCGCAGUCAAG”: -0.182. Next, “GGUCACGUCUCAAUCAACUCGUUUUCAGGAGUUUACUCCUGUUUUUUCAACAGCUCGCAGUCAAG”: -0.174. For the sequence “GGUCACGUCUCAAUCAACUCAUUCCCAGGAGUUUACUCCUGUUUUUUCAACAGCUCGCAGUCAAG”, the binding signal (log2 fold change) was 0.00676. In the case of “GGUCACGUCUCAAUCAACUCAGUUCCAGGAGUUUCCUCCUGCUUUCUCAACAGCUCGCAGUCAAG” it was 0.0634. With “GGUCACGUCUCAAUCAACUCUUUCUCAGGAGUUUACUCCUGUUAUUUCAACAGCUCGCAGUCAAG”, the binding signal (log2 fold change) worked out at 0.016. Regarding “GGUCACGUCUCAAUCAACUCUAUUCCAGGAGUUUACUCCUGUUAUUUCAACAGCUCGCAGUCAAG”, the binding signal (log2 fold change) is -0.375. Next, “GGUCACGUCUCAAUCAACUCAUUUCCAGGAGUUUCCUCCUGUUUACUCAACAGCUCGCAGUCAAG”: 0.0473; “GGUCACGUCUCAAUCAACUCUAUUCCAGGAGUUUUCUCCUGUAUAUUCAACAGCUCGCAGUCAAG”: 0.0267; “GGUCACGUCUCAAUCAACUCAAUUUCCAGGGAAAGCCCUGGCUUAUUCAACAGCUCGCAGUCAAG”: -0.294. In the case of “GGUCACGUCUCAAUCAACUCUUUUUCAGGAGUUUUCUCCUGUAUACUCAACAGCUCGCAGUCAAG”, the binding signal (log2 fold change) stood at 0.0533. Take “GGUCACGUCUCAAUCAACUCAAUCUCCAGGGAAAACCCUGGCAAAUUCAACAGCUCGCAGUCAAG”: the binding signal (log2 fold change) is -0.293. For “GGUCACGUCUCAAUCAACUCUUCUCCCAGGGAAAUCCCUGGCAAAUUCAACAGCUCGCAGUCAAG”, the binding signal (log2 fold change) is -0.0463. In the case of “GGUCACGUCUCAAUCAACUCACAAGAGGGGGGGAAAACCCCUUUACCCUCAAAUUCAACAGCUCGCAGUCAAG” it was -0.178; in that of “GGUCACGUCUCAAUCAACUCAAUCUCCAGGGAAAGCCCUGGCAUUCUCAACAGCUCGCAGUCAAG”, 0.139; in that of “GGUCACGUCUCAAUCAACUCUACAGAGGGGGGGAAAACCCCUUUUCCCUCAAAAUCAACAGCUCGCAGUCAAG”, -0.532. Consider “GGUCACGUCUCAAUCAACUCAAUCCCCAGGGAAAGCCCUGGCUAAUUCAACAGCUCGCAGUCAAG”, for which the binding signal (log2 fold change) was -0.197. As for “GGUCACGUCUCAAUCAACUCCACUGAGGGGGGGAAAACCCCUUUACCCUCCAAUUCAACAGCUCGCAGUCAAG”, the binding signal (log2 fold change) is -0.407. In the case of “GGUCACGUCUCAAUCAACUCUUCUCCCAGGGAAAGCCCUGGCUUUUUCAACAGCUCGCAGUCAAG” it was 0.00677; in that of “GGUCACGUCUCAAUCAACUCUUCGCCCAGGGAAACCCCUGGUUUUUUCAACAGCUCGCAGUCAAG”, -0.171; in that of “GGUCACGUCUCAAUCAACUCAUUCCCCAGGGAAAGCCCUGGUUAACUCAACAGCUCGCAGUCAAG”, -0.116. “GGUCACGUCUCAAUCAACUCUUCGUCCAGGGAAACCCCUGGUUUUCUCAACAGCUCGCAGUCAAG”: the binding signal (log2 fold change) stood at 0.36.

In the case of “GGUCACGUCUCAAUCAACUCAUCGUCAGGAGUUUACUCCUGUAAUCUCAACAGCUCGCAGUCAAG”, the binding signal (log2 fold change) stood at 0.238. Next, “GGUCACGUCUCAAUCAACUCUAUCUCCAGGGAAACCCCUGGCUUUUUCAACAGCUCGCAGUCAAG”: -0.0484; “GGUCACGUCUCAAUCAACUCAUCCUCAGGAGUUUUCUCCUGCUAUGUCAACAGCUCGCAGUCAAG”: 0.0569. For the sequence “GGUCACGUCUCAAUCAACUCAUUUCCAGGAGUUUACUCCUGCUUACUCAACAGCUCGCAGUCAAG”, the binding signal (log2 fold change) was -0.181. In the case of “GGUCACGUCUCAAUCAACUCAUCCCCAGGAGUUUACUCCUGCUAAUUCAACAGCUCGCAGUCAAG” it was 0.136; in that of “GGUCACGUCUCAAUCAACUCAUUAGAGGGGGGGAAAACCCCUUUACCCUCAAACUCAACAGCUCGCAGUCAAG”, -0.427.

As to “GGUCACGUCUCAAUCAACUCUAUCCCCAGGGAAAACCCUGGUAUAUUCAACAGCUCGCAGUCAAG”, the binding signal (log2 fold change) is -0.312.

In the case of “GGUCACGUCUCAAUCAACUCUAUAGAGGGGGGGAAAACCCCUUUGCCCUCAAUCUCAACAGCUCGCAGUCAAG”, the binding signal (log2 fold change) was -0.403. Take “GGUCACGUCUCAAUCAACUCUAUUUCAGGAGUUUACUCCUGCUUUUUCAACAGCUCGCAGUCAAG”: the binding signal (log2 fold change) came to 0.0737. For “GGUCACGUCUCAAUCAACUCAUCAGAGGGGGGGAAAACCCCUUUGCCCUCAAAAUCAACAGCUCGCAGUCAAG”, the binding signal (log2 fold change) was -0.0103. As to “GGUCACGUCUCAAUCAACUCAAUUUCCAGGGAAAGCCCUGGUAUACUCAACAGCUCGCAGUCAAG”, the binding signal (log2 fold change) worked out at 0.343.

These data come from PMC5892938.
